# Source: article PMC4336329 (PLoS ONE, 2015)
# Among all 310,000 compounds or so, about 2,200 (0.71%) showed an effect of 50% or more. The effect is printed as a negative number. The list shows a part of the results.
# Target: human ether-à-go-go-related gene (hERG) potassium channel (human, UniProt Q12809)
# Test: primary screen, population patch clamp on CHO cells stably expressing hERG
# Chain of human ether-à-go-go-related gene (hERG) potassium channel (Q12809 whole entry, looked up): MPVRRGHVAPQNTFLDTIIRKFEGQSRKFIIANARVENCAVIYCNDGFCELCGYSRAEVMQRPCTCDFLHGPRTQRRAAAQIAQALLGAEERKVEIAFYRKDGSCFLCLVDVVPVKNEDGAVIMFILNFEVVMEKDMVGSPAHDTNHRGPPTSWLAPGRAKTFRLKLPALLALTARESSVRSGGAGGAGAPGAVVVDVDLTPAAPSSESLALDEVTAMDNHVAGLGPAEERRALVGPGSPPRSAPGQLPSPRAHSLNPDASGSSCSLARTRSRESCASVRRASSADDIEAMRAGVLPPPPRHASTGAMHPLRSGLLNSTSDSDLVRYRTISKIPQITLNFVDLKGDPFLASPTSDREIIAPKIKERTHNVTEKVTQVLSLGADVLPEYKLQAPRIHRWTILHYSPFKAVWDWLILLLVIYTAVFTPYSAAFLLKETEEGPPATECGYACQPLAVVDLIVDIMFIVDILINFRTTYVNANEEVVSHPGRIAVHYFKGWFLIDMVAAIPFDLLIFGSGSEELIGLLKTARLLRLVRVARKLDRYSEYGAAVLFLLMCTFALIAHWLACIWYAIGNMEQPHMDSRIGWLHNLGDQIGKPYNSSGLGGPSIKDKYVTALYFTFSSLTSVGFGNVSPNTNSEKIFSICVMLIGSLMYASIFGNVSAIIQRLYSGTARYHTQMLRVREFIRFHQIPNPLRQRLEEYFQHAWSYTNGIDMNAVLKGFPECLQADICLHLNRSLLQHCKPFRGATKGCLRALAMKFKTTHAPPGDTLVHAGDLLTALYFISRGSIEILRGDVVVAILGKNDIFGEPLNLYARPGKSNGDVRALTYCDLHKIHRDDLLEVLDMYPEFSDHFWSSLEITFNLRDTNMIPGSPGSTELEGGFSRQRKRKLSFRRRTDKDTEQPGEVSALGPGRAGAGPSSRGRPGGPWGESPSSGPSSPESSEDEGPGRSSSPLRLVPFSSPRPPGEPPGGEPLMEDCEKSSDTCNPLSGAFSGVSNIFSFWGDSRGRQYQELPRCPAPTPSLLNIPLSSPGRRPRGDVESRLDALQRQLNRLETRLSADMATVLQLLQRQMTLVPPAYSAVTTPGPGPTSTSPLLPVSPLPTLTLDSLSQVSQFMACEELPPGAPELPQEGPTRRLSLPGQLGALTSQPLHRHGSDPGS
row,SMILES,"hERG current change (%, negative = inhibition) at 1uM [%]"
1,N#Cc1ccsc1NC(=O)CSc1nnnn1-c1ccc(O)cc1,1.79
2,ON(Cc1c(F)cccc1Cl)Cc1c(F)cccc1Cl,1.01
3,COc1cc(/C=C2/CCCC(C(=O)C(F)(F)F)=C2O)ccc1O,12.6
4,O=C(Cn1nc(C(F)(F)F)c2c1CCCC2)N1CCOCC1,11.4
5,CC(Cc1ccccc1)NC(N)=O (stereo not drawn),8.44
6,Cc1cc(C)c2c(N)c(C(=O)Nc3cccc(C)c3C)sc2n1,6.81
7,Cc1cc(Nc2ccc(Cl)cc2)n2nnnc2n1,14.3
8,COc1ccc(-c2ccc([C@H]3[C@H]4C=CC[C@@H](C)[C@@H]4C(=O)N3Cc3ccccc3)c(F)c2)cc1OC,6.25
9,CCCCN1CC2([N+](=O)[O-])C=CC(=O)C([N+](=O)[O-])(C1)C2CC(=O)c1ccccc1 (stereo not drawn),11.6
10,CCCCn1c(CCCNC(=O)c2ccco2)nc2ccccc21,-11.9
11,CC(=O)c1cc(C#N)c(N2CCCCC2)nc1C,10.5
12,CCN(CC)C(=O)c1sc2nc(-c3ccccn3)[nH]c(=O)c2c1C,4.24
13,COc1ccccc1/C(C)=N/NC(=O)c1nnn(-c2nonc2N)c1C(C)C,4.91
14,Cc1ccc2[nH]c(CCN(C)C)c(CN3CCOCC3)c2c1,7.39
15,CCC(C)(C)NC(=O)CN(C(=O)CNS(=O)(=O)c1ccc(C)cc1)c1ccc2c(c1)OCCO2,5.36
16,CCC(=NCCN1CCOCC1)c1c(O)n(C2CCCCC2)c(=O)[nH]c1=O,5.55
17,Cn1cnc(C(F)(F)F)c1-c1ccc([N+](=O)[O-])cc1,0.329
18,Cn1c(CN2CCN(S(C)(=O)=O)CC2)nc2cc([N+](=O)[O-])ccc21,11.7
19,COC(=O)c1ccccc1S(=O)(=O)N(CCCO)Cc1cc2c(C)ccc(C)c2[nH]c1=O,-14.8

row,SMILES,"hERG current change (%, negative = inhibition) at 1uM [%]"
1,CC(C)c1ccc(S(=O)(=O)N2CCN(CC(=O)Nc3ccc(Cl)cc3F)CC2)cc1,1.23
2,COc1cccc(CN2CCN(Cc3[nH]c4ccccc4c3C)CC2CCO)c1 (stereo not drawn),-11.2
3,COc1ccccc1N1CCN(CCCNC(=O)Cn2ncc3c([nH]c4ccccc43)c2=O)CC1,-31
4,CC(C)CN(C(=O)COC(=O)c1ccccc1SCC(=O)NC1CCCCCC1)C1CCS(=O)(=O)C1 (stereo not drawn),10.6
5,Cc1ccc(-n2nc3c(=O)n(CCCC(=O)NCCN4CCN(C)CC4)nc(C)c3c2C)cc1,9.39
6,Cc1ccc(C)c(NC(=O)CSc2ccc(-c3cccs3)nn2)c1,11.3
7,Cc1cccc(S(=O)(=O)NCCC(=O)OC(C)C(=O)NC(=O)NC2CCCCC2)c1 (stereo not drawn),-9.22
8,Cc1ccc(C(=O)Nc2ccc(S(=O)(=O)N3CCCC3)cc2)s1,6.14
9,C/C=C/C=N/Nc1nc(-c2ccc([N+](=O)[O-])cc2)cs1,2.13
10,Cc1cccc(CN2C(=O)N/C(=C/c3cc(C)n(-c4ccccn4)c3C)C2=O)c1,11.7
11,O=C(NC(=O)c1ccc(F)cc1)Nc1nc(-c2cccs2)cc(C(F)(F)F)n1,8.86
12,COc1ccc(NC(=O)C(=O)NNC(=O)c2ccc(Cl)cc2Cl)cc1,3.93
13,Cc1ccnc(NC(=O)c2cccc(S(=O)(=O)N3CCCc4ccccc43)c2)c1,6.79
14,CCCOc1ccccc1-n1sc2c(c1=S)-c1cc(OC)cc3c1N(C(=O)C3=O)C2(C)C,-0.0471
15,CCOc1ccccc1C(=O)N[C@H](C(=O)NCc1ccccc1)C(C)C,0.928
16,CC(=O)c1c(C)[nH]c(C(=O)CSc2nnc(C3CCCCC3)n2N)c1C,23.4
17,c1coc(-c2cc(C3CCNCC3)[nH]n2)c1,8.25
18,C/C(=N\NC(=O)OC(C)(C)C)c1cccc([N+](=O)[O-])c1,2.89
19,CN(c1ccccc1)S(=O)(=O)c1cc(Cl)ccc1Cl,4.85

row,SMILES,"hERG current change (%, negative = inhibition) at 1uM [%]"
1,COC(=O)CNC(=O)c1ccc(C)s1,-1.09
2,CC(NC(=O)COC(=O)c1ccc(N(C)C)cc1)c1ccccc1 (stereo not drawn),12.2
3,COc1ccc(OC)c(-c2nnc(NC(=O)C(C)Sc3nncn3C)s2)c1 (stereo not drawn),3.32
4,COCCc1nnc(NC(=O)Cc2ccccc2)s1,6.37
5,Oc1ccc(C2=NN(c3ccccc3)C(c3ccc(F)cc3)C2)cc1 (stereo not drawn),8.16
6,Cc1cc2cc(CNC(=O)c3ccc4c(c3)OCO4)ccc2n1C,13.6
7,COc1ccc(NC(=O)C2=CC(c3ccc(OC)c(OC)c3)=NS(=O)(=O)N2C)cc1,7.46
8,O=C1CC(N2CCC(O)CC2)C(=O)N1c1ccc(Br)cc1 (stereo not drawn),-2
9,CC(=O)c1sc(Nc2nc3ccc(F)cc3s2)nc1C,11.5
10,NCC(=O)N1CCC(C(=O)N[C@@H](Cc2c[nH]c3ccccc23)C(=O)O)CC1,17.7
11,CCOc1ccc2nc(NC(=O)CSc3cn[nH]n3)sc2c1,11.7
12,O=C(CCCN1C(=O)c2cccnc2C1=O)N1CC(=O)N(CCc2ccccc2)C(=O)C1,6.24
13,CN/C(=C/[N+](=O)[O-])NCCSCc1csc(CN(C)C)n1,12
14,O=C(Cc1cccs1)N1CCN=C1SCc1ccccc1F,-0.585
15,Cc1ccccc1C(=O)Oc1ccc(-c2csnn2)cc1,18
16,O=C(NCC1CCCN(Cc2nccs2)C1)c1cccc2ccccc12 (stereo not drawn),8.65
17,COC(=O)c1cc(S(=O)(=O)N(C)c2ccc(C)c(C)c2)c[nH]1,6.8
18,CNC(=O)C(Sc1ccccc1)c1ccccc1 (stereo not drawn),9.27
19,Cc1cc(N2CCCCCC2)n2nc(C)c(-c3ccccc3)c2n1,15.6
